Test results as given in the supplement of paper PMC11417369.
The list shows a part of the results.

test system: PF3D7_0420300 AP2 domain 1 (GST-tagged); assay: gcPBM binding intensity (ln(normalized median fluorescence intensity)); higher = stronger DNA binding
Procedure, shortened: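 In this array assay, P. falciparum DNA-binding domains with a GST tag, expressed in E. coli, were applied for 1 h to primer-extended double-stranded 36-bp intergenic genomic probes and negative controls on an Agilent 4 × 180k array. Bound protein was visualised with Alexa488 anti-GST antibody at 488 nm. Binding intensity is the highest Masliner-normalised natural-log median intensity across replicate spots of either probe orientation.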

| Sequence | gcPBM binding intensity (ln) |
| --- | --- |
| TAAGTAAACTTTCTATGTACATATTTTCAAATATTA [XGTACX_site6260] | 9.11 |
| CTTATATATACATATACACACACACCCATATATATA [CACACA_site8705] | 10.1 |
| TAACATAAATCCATACGTACCTATATATATATAATA [XGTACX_site2626] | 9.21 |
| ATTTATATTAAAAGTGTGCACTTTTTTTTTTTTTTT | 9.12 |
| TCATTCCATACTTTAACACACAAATATATTTAATCC [CACACA_site145] | 9.54 |
| TTTTTTTTTTTGTTTTGTACATAAATTGCAACCAAT [XGTACX_site8949] | 9.05 |
| ATATATATATATATATGTACATATTCACTTATATTT [XGTACX_site5324] | 9.18 |
| TATATATATATAATTACACACAATGTTCTATATATA [CACACA_site3235] | 9.51 |
| TATTTATTTAATTACACACGAACATATAACCATTTC [CACACA_site211] | 9.55 |
| TTTTCTTTTAAACATATATATATATATATATATATA [XGTACX_negctrl_site559] | 8.81 |
| TGTAGACTACATAGTAGTACATAATATATACATATA [XGTACX_site367] | 9.1 |
| GTTGAAAAAAAAAATGCACACGCATACATATAATAT [CACACA_site8117] | 9.46 |
| ATTTCTTTGCTTTTCAAACACACAAAAGTTATTATA [CACACA_site520] | 9.41 |
| AAAAAAAAAAAAAAAACACACATATATATTATTGTA [CACACA_site3979] | 9.26 |
| TTTTTTGTATTTTTCACACACTCTCTATCTCTCTCA [CACACA_site2095] | 9.54 |
| GAATATTACATGTATTGTACAGGTAATGTTAAAAAT [XGTACX_site8274] | 9.26 |
| AGTAAAAAAAATATCTGTACATATTAATATAAATGT [XGTACX_site6234] | 9.27 |
| AAATATTATTCTTTTATTTTTAAACATATAATTATA [GTGCAC_negctrl_site136] | 9.05 |
| TTATACACTGATAAAAGTACATTTGTATGTTTTTTT [XGTACX_site8959] | 9.24 |

| Sequence | gcPBM binding intensity (ln) |
| --- | --- |
| ATCTAAAAATTTTACGCACACAAGTAAAAAAAAAAA [CACACA_site2485] | 9.36 |
| TTTTATAATCATAATAGTACTTTTTCTTTTTCACAT [XGTACX_site5017] | 9.17 |
| TAATCATAAAAAAATACACACATATAAAATATAGAT [CACACA_site7020] | 9.67 |
| AAAAGTTAAGCAACAAATTTTATTTCTTATATATAA [TGCATGCA_negctrl_site134] | 8.91 |
| ATATTTATAAATTGCACACAAATAATAACATTATAT [CACACA_site5322] | 9.39 |
| AAAATTCTTATAAGATGTACAATTTGTAACACTATA [XGTACX_site510] | 9.14 |
| TTTTGTATATATTATTGTACTTTTAATATAGATCGT [XGTACX_site5830] | 9.22 |
| AAATAAATATATAATACACACAAAAATATAAAATGT [CACACA_site3711] | 10.1 |
| TCACATACATTACTTACACACCATATTAAGATATAC [CACACA_site4415] | 9.54 |
| TTTTTTACAACACGAAAATGAACAATTATAATAAAT [TGCATGCA_negctrl_site301] | 9.31 |
| TTATACTCACGTTACACACACACAATATATATATAT [CACACA_site4137] | 10.1 |
| ATAATATATATATGTAGTACGTATATAATTTTAATA [XGTACX_site5228] | 9.27 |
| ATATTTATGACCGTACGTACCTAACAATACAATCAA [XGTACX_site4511] | 9.22 |
| TGAATTTCAAAACAGTGTACATTAATATATATATAA [XGTACX_site7951] | 9.06 |
| AAAAATAAAAAAAACACACATACCTTATTTTTGTTC [CACACA_site2634] | 9.75 |
| AATTAAAATTTTTTTTTTTTTTTTTTTTTTCTATTA [CACACA_negctrl_site1585] | 9 |
| TATATATAGAAACACACACACAAAAAAAAAAAAAAA [CACACA_site1506] | 9.59 |
| TATATATCCTTCTATGCATGCATATGGATAGATTTC [TGCATGCA_site58] | 8.97 |
| ATTTAAAAAACTTTTAGCAAAAAAAAAAAATAATAA [TGCATGCA_negctrl_site191] | 9.03 |

| Sequence | gcPBM binding intensity (ln) |
| --- | --- |
| AAATTGATATTATATATATATATATATATATATATA [GTGCAC_negctrl_site482] | 8.89 |
| ATATATATATACATACGTACACACAAATATTAAAAT [XGTACX_site4007] | 9.67 |
| TCCTATATCACAAATGTGCACAGAAAAAAAAAATAT | 9.31 |
| TGTATACATAATATTTGTACATATTGTTATATATAT [XGTACX_site740] | 9.35 |
| AATATATATAATAATTGTACAATACGTATGTTATAT [XGTACX_site8745] | 9.43 |
| TTATAAAAAAAAAAAAAAAAGAAAATGAATTCACGA [CACACA_negctrl_site1248] | 9.18 |
| TTCGACGAGAGCAAGTGTACTCTTGAATAATTTATA [XGTACX_site7613] | 8.91 |
| ATTTTATTTTTTGAGTGTACTAGTTCAACAACTCCG [XGTACX_site8600] | 9.19 |
| TGTTATATATTATATACATGCACAAAAGCAACACAA [TGCATGCA_site1009] | 9.31 |
| AACTTTTTTATATGCACACATAAACAAGGATATATA [CACACA_site2874] | 9.35 |
| AAAAAAAAAAAAAACACACACACACCCATACACATA [CACACA_site2860] | 10.1 |
| CAAAAAATACGATGTTGTACTATGTATTCCTGATGT [XGTACX_site246] | 9.36 |
| TACTTCGATAATAATCGTACATATATATTGTATTTA [XGTACX_site5700] | 9.34 |
| TATATATACATAAAAACATGCAATATATACACATTA [TGCATGCA_site444] | 9.32 |
| TTGTTTTGCTAAAAATGTACTCTATATAAAAGCTTT [XGTACX_site4027] | 8.98 |
| TATATATATTATATATGTACACATATGTGAGAATGA [XGTACX_site2992] | 9.31 |
| ATTTATATGTAGATGTGTACTTAATTGTAATGTGTT [XGTACX_site6422] | 9.53 |
| TATCAAAATAAATGCACACAAATTGCACATATCTAT [CACACA_site1097] | 9.43 |
| CAAAAACATACCTACACACACAATATGTATAAATAA [CACACA_site7617] | 10 |
